Source: the supplement of paper PMC3334620
Over roughly 33,000 sequences, “E-score (-0.5 to 0.5)” has its median near -0.035; the highest 2% begin near 0.34. The list shows a part of the results.

target: T1, Mot3 (UniProt P54785); assay: PBM E-score (8-mer binding enrichment) (E-score (-0.5 to 0.5)); higher = stronger / more preferred TF binding; most listed sequences are background and not binding sites; conditions: protein concentration: 200 nM; construct: GST-full length
T1 sequence: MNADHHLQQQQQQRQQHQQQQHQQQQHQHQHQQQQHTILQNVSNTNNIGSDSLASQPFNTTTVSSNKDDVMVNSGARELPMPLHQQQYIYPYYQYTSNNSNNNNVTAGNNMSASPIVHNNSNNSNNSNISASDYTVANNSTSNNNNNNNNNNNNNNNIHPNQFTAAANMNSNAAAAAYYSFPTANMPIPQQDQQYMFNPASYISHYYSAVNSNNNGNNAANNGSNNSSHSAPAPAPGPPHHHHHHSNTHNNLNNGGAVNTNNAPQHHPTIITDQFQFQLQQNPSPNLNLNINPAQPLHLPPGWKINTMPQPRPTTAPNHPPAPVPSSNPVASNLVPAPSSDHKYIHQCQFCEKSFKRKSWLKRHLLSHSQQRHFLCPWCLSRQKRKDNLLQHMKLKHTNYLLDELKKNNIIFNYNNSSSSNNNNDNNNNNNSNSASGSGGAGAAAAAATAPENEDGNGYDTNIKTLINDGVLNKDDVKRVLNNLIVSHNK
Procedure, shortened: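 GST-tagged yeast TFs (full-length or DNA-binding domain) were made by PURExpress in vitro transcription/translation and applied at about 100-200 nM to universal all-10-mer Agilent arrays. The arrays were made double-stranded by primer extension, on fresh or once-stripped slides. Bound protein was detected with fluorescent anti-GST, and scans were normalised with masliner. Each ungapped eight-base word, pooled with its reverse complement, received an E-score (modified Wilcoxon-Mann-Whitney statistic) from the Universal PBM Analysis Suite.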

Row | Sequence | PBM E-score
1 | AGATGTAC | 0.0591
2 | ATTATCAG | -0.0609
3 | ATACAGGC | 0.333
4 | CCTGCAAC | 0.144
5 | ATTAAATA | 0.132
6 | CGATGAGA | -0.07
7 | AGGGTAAC | 0.00226
8 | GGGCTCAC | -0.262
9 | ATCACACC | -0.0466
10 | CATGTGGA | -0.0255
11 | CTCTACAC | 0.223
12 | AGACGAAC | 0.0428
13 | ACCAGGTC | -0.191
14 | ACGGTAAC | 0.195
15 | AAGGTCCC | -0.184
16 | AGTGTCCG | -0.169
17 | ATAGTCAC | 0.231
18 | AGGATATC | -0.168
19 | ATCCGGGA | -0.231
20 | GCTCTGAA | -0.0758
21 | CGATTCAA | -0.0781
22 | CAGACCGA | -0.201
23 | CTTGATCA | -0.143
24 | ACGAATCT | 0.0785
25 | GCCACAAA | -0.0162

Row | Sequence | PBM E-score
26 | TATGCAGA | -0.151
27 | ACATAAAG | 0.263
28 | AGCAGCCC | -0.115
29 | GGGCTCTA | -0.186
30 | CATTAAGA | -0.00127
31 | ACTTGCTA | 0.016
32 | GTAAGTGA | 0.0737
33 | CGATATGA | -0.105
34 | CCCATCGA | -0.114
35 | ACAGGTTC | 0.299
36 | AAGTAGGA | 0.2
37 | CGATACCG | -0.298
38 | AGGACGTA | 0.0784
39 | GGTCGGAA | -0.119
40 | AATGTCAA | 0.0969
41 | AGACAACC | 0.0305
42 | CAGTTTTC | -0.101
43 | AGCCTGAG | -0.116
44 | AAAACAGG | 0.191
45 | CAGTCAAC | -0.164
46 | ATGCACAG | -0.125
47 | AATGCTGG | 0.0617
48 | ACGGGGCA | -0.23
49 | AGACTCGC | -0.114
50 | GCTGAAAC | 0.165

Row | Sequence | PBM E-score
51 | AGTTGCTG | -0.103
52 | CATACTCC | -0.00023
53 | AAGATACG | -0.0326
54 | CGCATAAG | -0.103
55 | CCCGCGGA | -0.194
56 | ATTCTGGG | -0.0973
57 | AAACCAAG | 0.271
58 | ATGAGTCG | -0.0573
59 | GACAGCTA | -0.0884
60 | ACCCCCGT | -0.165
61 | CCTTACGC | 0.306
62 | CTCCTCCC | -0.277
63 | AATTGCTA | -0.083
64 | AATTACTA | 0.154
65 | CATATTAC | 0.232
66 | CCAATGAC | -0.125
67 | CGGCCACC | -0.23
68 | TAACCCCA | -0.141
69 | GCATCGAC | -0.0232
70 | TCCTAAAA | 0.21
71 | CACCAGAA | 0.0304
72 | AGGACACA | 0.215
73 | GATGACGA | 0.104
74 | CTTCCGAA | -0.271
75 | ATCAGCTG | -0.0375

Row | Sequence | PBM E-score
76 | CCAGGCGA | -0.155
77 | GATCGTTA | -0.106
78 | ACACGGCT | 0.243
79 | AATTGCTG | 0.0479
80 | ATACCAAC | 0.0993
81 | GTCAGACA | -0.114
82 | ATGCGGCC | -0.123
83 | GCCATGAA | -0.191
84 | CATACGCG | 0.155
85 | CCCTTGCA | -0.161
86 | GGAGACGA | -0.0123
87 | ATATTTAG | 0.139
88 | AATTTCGC | 0.0694
89 | ATACGGCG | 0.00604
90 | ATAGCATC | -0.164
91 | GATCCGGA | -0.18
92 | CTAGAAGA | -0.142
93 | ACCGGCCC | -0.264
94 | AAGCTCCA | -0.149
95 | TTAGGAAA | 0.351
96 | CATTCCAA | -0.0608
97 | CGCCAGAA | -0.272
98 | CATAAAGC | -0.00766
99 | ATACACAG | 0.332
100 | GGGTTATA | 0.0228

Row | Sequence | PBM E-score
101 | CGGGTATC | -0.118
102 | GCGGTCGA | 0.144
103 | TGGGGCAA | -0.158
104 | AGGAATAC | 0.156
105 | AGGAAATA | 0.368
106 | ACACTCAG | -0.0296
107 | CTTCACCA | -0.119
108 | CTCTAGGA | -0.145
109 | CTGAAATC | -0.0501
110 | AAAAAAGG | 0.134
111 | AATTGTAT | 0.0986
112 | ATTTTGGA | 0.0681
113 | CACTTCCC | -0.239
114 | ACAGTGTC | 0.00692
115 | TGTCAAAA | 0.241
116 | GAAAATCA | 0.128
117 | CAGGACAA | 0.0258
118 | AGTCATGC | -0.22
119 | CCCACGTA | 0.105
120 | CCGTACGA | -0.125
121 | CCGGCCGC | -0.242
122 | AGGAACCA | 0.419
123 | CCACCCCC | -0.309
124 | CTTGTATA | 0.17
125 | CAAGAAAG | 0.17

Row | Sequence | PBM E-score
126 | CCAATCAC | -0.0609
127 | TCCCGGCA | -0.283
128 | TCTAACAA | -0.00776
129 | ATGTGCTG | 0.147
130 | AGTACTGC | -0.16
131 | GTCTGTGA | -0.06
132 | AGGAATCA | 0.104
133 | AGCCCTGA | -0.214
134 | GTTGTGTA | 0.373
135 | GAGTCGTA | -0.226
136 | ACTGAATC | -0.0804
137 | GGCCCGTA | -0.0246
138 | AATTCTAT | 0.129
139 | CCTTTGCG | 0.173
140 | CACACGGC | 0.0643
141 | CAGTATAG | -0.00777
142 | AAAGATGA | 0.174
143 | ACTAAATC | -0.0252
144 | CGCGCGCC | -0.161
145 | CAAAACGC | 0.0743
146 | AGATTGAG | 0.0525
147 | GGAAGTGA | -0.156
148 | CAATCACC | 0.0191
149 | AAGATGAC | 0.0906
150 | GCCTGCGA | 0.35

Row | Sequence | PBM E-score
151 | CGCTTTAC | 0.199
152 | GCCAAGGA | -0.0855
153 | AACGGGGA | -0.072
154 | CGCGGACA | 0.0461
155 | CGTGTTTA | 0.346
156 | GCGGGAGA | -0.305
157 | CTGTTAGC | -0.143
158 | TCATCCAA | 0.0783
159 | AATGAACT | 0.0803
160 | GCAATTGA | 0.257
161 | AAGGATAT | -0.0885
162 | GAGTCAAC | -0.0553
163 | AAGAAGGA | 0.173
164 | TGAGTGCA | -0.0539
165 | ACACCGCA | 0.0279
166 | CCCGCAAG | -0.222
167 | AATTAGGA | 0.131
168 | AACACCCG | 0.0915
169 | AATTTTTA | 0.114
170 | CCAAGGCG | -0.0205
171 | ACAGAGGC | 0.00619
172 | ATAAGTAC | 0.0764
